PubChem BioAssay AID445 (National Center for Advancing Translational Sciences (NCATS), 2006)
Hit rate of the full screen: of about 110,000 compounds, about 40 (0.04%) were called active. The shares of active, inactive and inconclusive entries below differ from those in the screen. The call rests on the fitted dose curve; in most records, active means well fitted curve in the direction sought with a large enough effect in the signal ratio (not every such curve was filed as active); inconclusive means small, poorly fitted or top-dose-only effect, or a change in a side signal; inactive means flat fitted curve, though single readings scatter; the % refers to the signal ratio. Potencies of inconclusive entries are doubtful fits and often do not repeat.

Assay: IkB Signaling;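 on IkBa stabilization activation: 0% = basal untreated cells and 100% = reference inhibitor full response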
Conditions: ABC-DLBCL IkBa-CBG/CBR dual luciferase ratio (green luciferase fused to IkBa over red control in OCI-Ly3 lymphoma cells), 4 h; IkBa stabilization activation: at 57.1 µM (top of the series), scaled: untreated 0%, proteasome inhibitor 100% unless noted
Method in brief: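 Curves were fitted separately to fusion (green), unfused (red) and ratio luminescence, then classed by r2, magnitude and activity. Cells: OCI-Ly3, 4 h compound plus doxycycline at 37C; 10 uM MG-132 defined full response.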
Potency means the concentration at half of the fitted maximal effect.

| SMILES | IkBa stabilization activation | Potency |
| --- | --- | --- |
| O=C(c1nn(Cc2ccccc2)c(=O)c2ccccc12)N1CCN(c2ccccn2)CC1 | inconclusive: 5.84% [signal inhibitor] |  |
| CN(C)c1ncnc2ccc(-c3cccc(C#N)c3)cc12 | inactive: -1.73% [at 11.4 µM, scaled: untreated 0%, proteasome inhibitor 100%] |  |
| Cc1nnc(NC(=O)CSc2nnc(Cc3cccn3C)n2C)s1 | inactive: -0.121% |  |
| COc1ccc(-n2c(C)c(C(C)=O)c3cc(OC(=O)COc4ccccc4)ccc32)cc1 | inconclusive: 5.39% [signal inhibitor] |  |
| Cc1ncc(COP(=O)(O)O)c(C)c1O | inactive: 0.357% [at 11.4 µM, scaled: untreated 0%, proteasome inhibitor 100%] |  |
| Cc1cc(C)cc(OCC(=O)N(Cc2cccs2)c2ccc(Cl)cc2)c1 | inconclusive: 4.22% [signal inhibitor] |  |
| Cc1cc(-c2ccc(C)c(S(=O)(=O)NCc3cccc(Br)c3)c2)on1 | inconclusive: 2.93% [signal inhibitor] |  |
| CC(C)CCNc1nc2c(c(=O)n(Cc3cccc(F)c3)c(=O)n2C)n1C | inconclusive: -1.27% [signal inhibitor] |  |
| CSC(N)=NCCC[C@@H](N)C(=O)O | inactive: 0.972% |  |
| CCCCCn1c(CCNC(=O)c2ccc(F)cc2)nc2ccccc21 | inconclusive: -9.55% [signal inhibitor] |  |
| Fc1ccc(-c2nn(-c3ccccc3Cl)c3c2cnc2ccccc23)cc1 | inconclusive: 8.63% [signal inhibitor] |  |
| Cc1ccc2onc(CC(=O)N3CCN(c4cc(Cl)ccc4C)CC3)c2c1 | inconclusive: -1.91% [signal inhibitor] |  |
| CCc1c(O)nc(SCc2ccccc2)n(C(C)CC)c1=O (configuration not stated) | inactive: -0.174% |  |
| Cc1ccc(CNC(=O)Cc2c(C)c3c(cc(C)c4c(C)coc43)oc2=O)cc1 | inactive: -0.945% |  |
| CCCc1nc2sc3ccccc3c(=O)c2c(=O)n1Cc1ccco1 |  | inconclusive: 10 µM [signal inhibitor, partial curve] |
| COc1cccc(C(=O)c2c(N)c(-c3nc(-c4ccccc4)cs3)c3ccccn23)c1 | inconclusive: 7.23% [signal inhibitor] |  |
| Cc1cccc(-n2c(=O)c3c(c4cc(C)ccc4n3C)n(CC(=O)N3CCCC3)c2=O)c1 | inconclusive: -0.196% [signal inhibitor] |  |
| O=C(CN1C(=O)COc2ccccc21)NCCc1ccc(Cl)cc1 | inconclusive: 0.908% [signal inhibitor] |  |
| c1ccc(-c2nnc(CN3CCCc4ccccc43)o2)cc1 | inactive: 8.03% |  |
| Cc1ccc(CNC(=O)c2ccc(NC(=O)N3CCSc4ncccc43)cc2)cc1 | inconclusive: 1.91% [signal inhibitor] |  |
| Cc1cccc(C)c1OCCCn1c(CCNC(=O)C2CCCCC2)nc2ccccc21 | inconclusive: -2.03% [signal inhibitor] |  |

| SMILES | IkBa stabilization activation | Potency |
| --- | --- | --- |
| COC(=O)CC[C@@H](C)[C@@H]1CC[C@@H]2[C@@H]3CC[C@H]4C[C@@H](O)CC[C@@]4(C)[C@@H]3CC[C@]21C | inactive: 1.86% [at 11.4 µM, scaled: untreated 0%, proteasome inhibitor 100%] |  |
| CCOc1ccccc1NC(=O)c1nc(SC(C)C)ncc1Cl | inconclusive: -1.57% [signal inhibitor] |  |
| CCc1ccc(NC(=O)CN2C(=O)C(c3ccc(Cl)cc3)=NC23CCCCC3)cc1 | inconclusive: 0.686% [signal inhibitor] |  |
| O=C1/C(=C/c2ccccc2)[C@@H](NC2CCCCC2)c2ccccc21 | inconclusive: 8.63% [signal inhibitor] [at 11.4 µM, scaled: untreated 0%, proteasome inhibitor 100%] |  |
| Cc1cccc(/C=C(\C#N)c2nc3ccccc3c(=O)[nH]2)c1 | inconclusive: 13.5% [signal inhibitor] |  |
| COc1cc(OC)cc(-c2cc3nc4c(c(N5CCN(c6cnccn6)CC5)n3n2)CCCC4)c1 | inactive: 0.282% |  |
| COc1ccc(N2CCN(CCCNC(=O)c3cc(Nc4ccc(OC)cc4OC)nc4ccccc34)CC2)cc1 | inconclusive: -1.89% [signal inhibitor] |  |
| O=C(CCS(=O)(=O)c1ccccc1)N(Cc1cccnc1)c1nc2ccc(Cl)cc2s1 | inconclusive: 4.59% [signal inhibitor] |  |
| COC(=O)C1=C(C)N(c2ccc(Cl)c(Cl)c2)C(=O)C1 |  | inconclusive: 5.01 µM [signal inhibitor, full curve] |
| OC[C@@H](O)CNc1ncnc2ccccc12 | inactive: -0.568% [at 11.4 µM, scaled: untreated 0%, proteasome inhibitor 100%] |  |
| O=C(COc1ccc2c(c1)OCO2)NC12CC3CC(CC(C3)C1)C2 | inactive: 1.27% |  |
| CC(=O)OC1C(OC(C)=O)N(C(C)=O)C(=O)N1C(C)=O (configuration not stated) | inactive: -0.0899% |  |
| Cc1cc(C(=O)NCc2cccs2)c(C)o1 |  | inconclusive: 6.31 µM [rising, single point] |
| CC(C)c1ccc(C2CC(=O)N3CN(Cc4ccco4)CSC3=C2C#N)cc1 (configuration not stated) | inconclusive: 4.43% [signal inhibitor] |  |
| Cc1cc(C(=O)N2CCN(c3cccc(C)c3C)CC2)c2c(C)nn(-c3ccccc3)c2n1 | inconclusive: -2.72% [signal inhibitor] |  |
| CCOC(=O)c1sc(NC(=O)C2c3ccccc3Oc3ccccc32)c(C#N)c1C |  | inconclusive: 12.6 µM [signal inhibitor, partial curve] |
| Cc1ccc(C(=O)c2cn(CC(=O)NCc3ccccc3Cl)c3nc(C)ccc3c2=O)cc1 | inconclusive: 1.04% [signal inhibitor] |  |
| CCCC(=O)NC(C)c1nc2ccccc2n1Cc1ccccc1 (configuration not stated) | inconclusive: 1.66% [signal inhibitor] |  |
| Cn1c(=S)c2[nH]c(SCc3cccnc3)nc2n(C)c1=O | inactive: -0.54% [at 11.4 µM, scaled: untreated 0%, proteasome inhibitor 100%] |  |
| CC(C)(C)n1ncc2c(=O)n(CC(=O)NCc3ccc(F)cc3)cnc21 | inactive: 2.37% |  |
| O=C(O)CCCCCNC(=O)c1cccc(Br)c1 |  | inconclusive: 7.94 µM [signal inhibitor, full curve] |
